# Results from PubChem BioAssay AID463173 (ICCB-Longwood Screening Facility, Harvard Medical School, 2010).
# Hit rate of the full screen: of about 52,000 compounds, about 4,300 (8.3%) were called active. Rule as the data show it: active = survival mostly below about 52% (no sharp cut-off); inactive = mostly above about 56%. The list shows a part of the results.
# Test system: DeltatarO mutant
# Assay: S. aureus survival, RN4220 and DeltatarO strains – OD600, teichoic acid synthesis inhibitors, primary screen (AID 463173)
# Settings: S. aureus RN4220 wild type/DeltatarO growth, OD600, 18 h, active compounds read low, screened at 18.75 µg/mL (by protocol)
row,SMILES,survival
1,COc1ccc(N2CCN(C(=O)Nc3ccc(Cl)cc3)CC2)cc1,inactive: 168%
2,CCCCn1c(SCC(N)=O)nnc1-c1ccco1,inactive: 103%
3,Cc1cccc(NC(=O)CSc2nc3c(sc4ccccc43)c(=O)n2CCCC(=O)NC2CCCC2)c1,inactive: 87%
4,Cc1cccc(C(=O)Nc2ccc(S(=O)(=O)N(Cc3ccccc3)c3ccccc3)cc2)c1,inactive: 80%
5,O=C(C1COc2ccccc2O1)N1CCCC1 (stereo not drawn),inactive: 96%
6,COC(=O)Cn1cc(C(=O)c2cccs2)c2ccccc21,inactive: 82%
7,O=C1CSC(=O)N1CCOc1ccc(F)cc1,inactive: 80%
8,CCOC(=O)Cn1cnc2scc(-c3ccccc3)c2c1=O,inactive: 85%
9,Nc1cnc2cccc3c2c1-c1ccccc1C3=O,inactive: 86%
10,COc1ccc(C(=O)NCCn2cc(SC(C)c3ccccc3)c3ccccc32)cc1OC (stereo not drawn),inactive: 61%
11,Cc1ccc(N(C)C(=O)CCS(=O)(=O)c2cc3c(cc2Cl)NC(=O)CO3)cc1,inactive: 84%
12,COc1cc(NC(=O)NCCN2CCN(c3ccccc3)CC2)cc(OC)c1OC,inactive: 94%
13,Cc1cc(C)c(S(=O)(=O)Nc2ccc(-c3ccc(N4CCCCCC4)nn3)cc2)cc1C,inactive: 65%
14,CCN(CC)c1ccc2cc(-c3nc(-c4ccccc4F)no3)c(=O)oc2c1,inactive: 101%
15,Cc1nc2ccn(Cc3cccnc3)c(=O)c2cc1C(=O)Nc1ccc(F)cc1F,inactive: 92%
16,COCCCNC(=O)c1ccc(C)c(-n2c(C)nc3cccnc32)c1,inactive: 89%
17,O=S(=O)(Nc1ccc(F)cc1F)c1ccc(-n2cccn2)cc1,inactive: 70%
18,CCOc1ccc(-c2nnc(SCC(=O)c3ccc(Br)cc3)n2-c2ccccc2)cc1,inactive: 72%
19,O=C(CN1C(=O)CCc2cc(S(=O)(=O)N3CCOCC3)ccc21)NCc1ccc(Cl)cc1,inactive: 73%
20,CCOc1ccc(CCNC(=O)c2cc3c(s2)-c2c(C)cccc2OC3)cc1,inactive: 98%

row,SMILES,survival
1,CCc1ccc(NC(=O)Nc2nnc(N(C)C3CCCCC3)s2)cc1,inactive: 112%
2,CC(=O)c1ccc(NC(=O)Cn2c(=O)nc(-c3ccccc3)c3cc(Cl)ccc32)cc1,inactive: 115%
3,O=C(Nc1cccc(C(F)(F)F)c1)c1ccc2snnc2c1,inactive: 111%
4,Nc1ncnc2c1ncn2C1OC(C(=O)O)C(O)C1O (stereo not drawn),inactive: 92%
5,CCC(C)NC(=O)CSc1nc2cc3c(cc2c(=O)n1Cc1ccc(C(=O)NCCc2ccc(OC)c(OC)c2)cc1)OCO3 (stereo not drawn),inactive: 85%
6,Cc1cccc(N2CCN(C(=O)C3CCN(c4ncnc5c4nc4n5CCCCC4)CC3)CC2)c1C,inactive: 70%
7,COc1cccc(NC(=O)c2oc3ccccc3c2NC(=O)c2cc3ccccc3o2)c1,inactive: 51%
8,Cc1ccc(NC(=O)CN2C(=O)COc3ccc(S(=O)(=O)Nc4ccccc4)cc32)c(C)c1,inactive: 54%
9,COc1ccc(CNC(=O)c2ccc3nc(C(C)C)oc3c2)cc1OC,inactive: 68%
10,Cc1cc(C)c(NC(=O)CSc2nc3ccncc3[nH]2)c(C)c1,inactive: 119%
11,O=C(Nc1cccc2ccccc12)OC1C=CS(=O)(=O)C1 (stereo not drawn),inactive: 96%
12,CCOC(=O)Cn1c(=O)oc2cc(S(=O)(=O)N3CCC(C(=O)OCC)CC3)ccc21,inactive: 86%
13,Cc1ccc(OCC(=O)Nc2ccc3nc(SCCOc4ccccc4)sc3c2)cc1,inactive: 83%
14,COc1ccc(NC(=O)Cn2nnc3sc4c(c3c2=O)CCCC4)cc1,inactive: 61%
15,COc1cc2ccccc2cc1C(=O)Nc1cccc(-c2nc3cc(C)ccc3o2)c1C,inactive: 55%
16,Cc1cccc(NC(=O)C2CCCN(S(=O)(=O)c3ccc(Br)s3)C2)c1 (stereo not drawn),inactive: 69%
17,COc1ccc(NC(=O)CS(=O)CC(=O)Nc2cc(OC)ccc2OC)cc1 (stereo not drawn),inactive: 102%
18,Cc1ccc(C2=NC(c3ccccc3)=Nc3ccc(Cl)cc3N2)cc1,inactive: 89%
19,CC(C)NC(=O)C1CCN(c2ccc(S(=O)(=O)N3CCOCC3)cc2Cl)CC1,inactive: 81%
20,COC(=O)c1cc2oc3ccccc3c2n1Cc1c(C)cc(C)cc1C,inactive: 130%

row,SMILES,survival
1,CCc1ccc(NC(=O)CCc2nnc3n(C)c(=O)c4sccc4n23)cc1,inactive: 65%
2,COCCCNC(=O)CSc1nc(-c2ccc(OC)c(OC)c2)[nH]c1-c1ccc(F)cc1,inactive: 81%
3,Cc1cc(C)c2c(=O)cc(C(=O)NCc3ccc(S(N)(=O)=O)cc3)oc2c1,inactive: 117%
4,CC(C)(C)OC(=O)N1CCC(c2c(C(=O)NCc3ccco3)cnn2-c2ccccc2Cl)CC1,inactive: 76%
5,Cc1nn(CCCC(=O)NCc2ccccc2)c(=O)c2cc3sccc3n12,inactive: 76%
6,CC(=O)c1cc(-c2ccccc2)n(CCC(=O)NC(C)c2ccccc2)c1C (stereo not drawn),inactive: 67%
7,COC(=O)c1ccccc1NS(=O)(=O)c1ccc2c(c1)CCCN2C(C)=O,inactive: 74%
8,CCCC(=O)n1nc(-c2cccnc2)nc1NCc1ccc(OC)cc1,inactive: 70%
9,COc1ccc(C(=O)Nc2cc3c(cc2N2CCCC2)n(C)c(=O)c(=O)n3C)cc1OC,inactive: 97%
10,COc1cc(CN2CCc3nc(N4CCN(c5ccccn5)CC4)ncc3C2)cc(OC)c1OC,inactive: 89%
11,O=C(Nc1ccc(Cl)cc1C(F)(F)F)c1cc(S(=O)(=O)N2CCOCC2)ccc1F,inactive: 124%
12,CCOc1ccc(S(=O)(=O)n2nc(C)c(S(=O)(=O)N3CCCCC3)c2C)cc1,inactive: 89%
13,Cc1ccc(CNC(=O)c2c(C)oc3nc(C)nc(N4CCOCC4)c23)cc1,inactive: 98%
14,Cc1nn(C)c(C)c1N1C(=O)c2cccc3c(Br)ccc(c23)C1=O,inactive: 50%
15,CCc1ccc(-n2nc3cc(C)c(NC(=O)c4cc(OC)cc(OC)c4)cc3n2)cc1,inactive: 68%
16,CC(C)(C)c1ccc(C(=O)NCC(c2cccs2)S(=O)(=O)c2cccs2)cc1 (stereo not drawn),inactive: 74%
17,CCOc1cc(C(=O)Nc2ccc(-c3nc4ccccc4s3)cc2Cl)cc(OCC)c1OCC,inactive: 92%
18,Cc1cccc(C)c1NC(=O)Cn1c(=O)n(Cc2ccc3c(c2)OCO3)c(=O)c2oc3ccccc3c21,inactive: 81%
